# Measurements from the supplement of paper PMC3334620.
# Over roughly 33,000 sequences, “E-score (-0.5 to 0.5)” has its median near -0.041; the highest 2% begin near 0.37. The list shows a part of the results.
# Biological target: T1, Ecm22 (UniProt Q05958)
# T1 sequence: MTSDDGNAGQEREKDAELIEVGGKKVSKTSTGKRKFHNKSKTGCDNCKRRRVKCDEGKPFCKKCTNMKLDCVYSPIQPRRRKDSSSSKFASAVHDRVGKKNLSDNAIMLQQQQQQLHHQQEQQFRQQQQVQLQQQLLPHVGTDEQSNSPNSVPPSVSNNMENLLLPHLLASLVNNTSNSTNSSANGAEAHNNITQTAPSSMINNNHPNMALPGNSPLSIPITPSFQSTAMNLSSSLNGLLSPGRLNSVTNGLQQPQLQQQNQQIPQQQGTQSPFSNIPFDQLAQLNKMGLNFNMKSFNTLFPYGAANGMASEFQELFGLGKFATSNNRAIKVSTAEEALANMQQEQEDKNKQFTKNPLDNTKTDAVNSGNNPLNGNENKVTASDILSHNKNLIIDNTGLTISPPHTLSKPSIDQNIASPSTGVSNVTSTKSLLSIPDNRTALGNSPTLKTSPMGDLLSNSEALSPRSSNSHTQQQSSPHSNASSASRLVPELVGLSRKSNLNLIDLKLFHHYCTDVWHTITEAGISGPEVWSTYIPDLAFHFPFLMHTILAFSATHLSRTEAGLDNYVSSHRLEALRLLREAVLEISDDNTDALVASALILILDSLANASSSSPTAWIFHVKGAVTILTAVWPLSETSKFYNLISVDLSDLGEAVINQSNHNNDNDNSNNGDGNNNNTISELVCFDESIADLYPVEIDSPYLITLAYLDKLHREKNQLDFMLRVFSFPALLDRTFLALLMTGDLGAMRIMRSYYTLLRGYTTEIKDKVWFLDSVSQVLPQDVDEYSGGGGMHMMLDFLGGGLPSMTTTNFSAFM
# Assay: PBM E-score (8-mer binding enrichment) (E-score (-0.5 to 0.5)); higher = stronger / more preferred TF binding; most listed sequences are background and not binding sites
# Conditions: protein concentration: 200 nM; construct: GST-full length
# Summary of the method: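 Yeast transcription factors carrying a GST tag, as full-length proteins or DNA-binding domains, were produced by PURExpress in vitro transcription/translation. About 100-200 nM protein was applied to universal all-10-mer Agilent arrays, double-stranded by primer extension on fresh or once-stripped slides. Bound protein was detected with fluorescent anti-GST, and scans were normalised with masliner. The Universal PBM Analysis Suite gave each ungapped eight-base word, pooled with its reverse complement, an E-score, a modified Wilcoxon-Mann-Whitney statistic.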
row,Sequence,PBM E-score
1,ACGAACCA,0.391
2,ATTTCCTC,0.0768
3,CATAGCGG,-0.0573
4,CGCTCTGC,0.0549
5,AACTCGTA,0.47
6,AAGTTTGC,-0.0114
7,CGAGAAAG,0.109
8,CGAGCAGA,0.192
9,AACGCACA,0.135
10,GCCGCGGC,0.16
11,ATCATGGA,-0.243
12,GGGTTAAA,0.0395
13,AATGGAGC,-0.0454
14,GGTCCGAC,0.17
15,CAGTTTCG,0.0868
16,CTTCTGTA,-0.0207
17,GCGACCGA,0.218
18,AACTTCCC,-0.0659
19,ATGCTTGG,-0.113
20,CTACGAGA,0.385
21,ATCGATCC,0.0447
22,CATGCGCG,-0.0112

row,Sequence,PBM E-score
1,AAGAAGTC,-0.16
2,AGAAGAGA,-0.0866
3,ATTTTTCA,-0.017
4,CCTCCCCG,0.0606
5,AGGAATTA,0.00567
6,CGATCAAA,0.15
7,TAACCGCA,0.0749
8,GCTTCATA,-0.135
9,CACACGGG,-0.23
10,AAGCAAAA,-0.13
11,CTGTGGGA,-0.225
12,CTAATTTC,0.1
13,GCGATAGC,-0.0401
14,TAGAGAAA,-0.0156
15,CAAATACA,-0.0654
16,CAGCGGGC,-0.252
17,CAAACAGG,-0.00237
18,CCGCCCCC,-0.274
19,CAGCTCCA,-0.15
20,AATACAAG,-0.0209
21,CTCGAAAC,0.0639
22,AATCATGA,0.0738

row,Sequence,PBM E-score
1,CCTGCTCC,-0.0691
2,CCAAGTCA,-0.149
3,AATAAAAG,-0.165
4,AGTTTGGC,-0.00953
5,TCAAGACA,-0.228
6,AAAAACTT,-0.152
7,CAGATTCG,-0.0112
8,ACCAGATG,-0.109
9,CCAGACCC,-0.2
10,CCGAGGGA,-0.0341
11,AGGCGCCA,-0.163
12,GGTGACAC,-0.179
13,CGGGCCCC,-0.116
14,GGGACTCA,-0.201
15,TCGCACGA,0.183
16,AATGTCCA,-0.296
17,CAAATTCA,-0.345
18,AACAAGCT,0.0706
19,GTTTGGGA,0.172
20,ACACCACT,0.0634
21,CCACCCGC,-0.0883
22,GTAATTGA,0.0734

row,Sequence,PBM E-score
1,GATTTACC,0.039
2,GACCGGGA,-0.0371
3,ATGGCAAT,0.0142
4,CTAGCTAC,-0.0828
5,AAGAGGAG,-0.00745
6,ATACCTAG,-0.0691
7,AGTGTGTA,-0.069
8,CACCTTTA,-0.0916
9,GAGTTATC,0.166
10,GATTCAAA,-0.126
11,CATCCCAC,-0.198
12,ACTAATGG,-0.153
13,GATAGTGC,-0.0363
14,CAGAGCCG,-0.0855
15,ACGCCCCG,0.0212
16,CCTGACAC,-0.117
17,CGGCGCCA,0.105
18,ACCGCATC,-0.13
19,AGATCACC,-0.0611
20,CGCGATTC,0.197
21,CTCATCTA,0.0284
22,ACACTCGT,0.337

row,Sequence,PBM E-score
1,AACATTAA,0.0332
2,AGTACAGA,0.0225
3,TACCGGGA,0.0279
4,CGAATCAG,0.0842
5,AGCTCACC,-0.0549
6,ACAACCAT,0.0954
7,AGTCCGAG,0.0545
8,AGCACTGG,-0.121
9,GATCCAAA,-0.0382
10,CCACTGAG,-0.199
11,TACTACTA,0.18
12,CGCGGTGA,0.0662
13,GAAGCAAC,-0.0479
14,CCCCCGGA,-0.346
15,ACCCTTAT,0.00524
16,AAAATTCG,0.141
17,AATCGCGC,0.00974
18,GGCACCGA,-0.0384
19,CTGTGGGC,-0.108
20,CGGAGACA,0.0239
21,CCATACCC,-0.00508
